Measurements as given in paper PMC5216347.
No constants are given. Whether binding was seen depends on the method and setting. In cells and extracts the contact can be indirect. Some binding calls cover weakened binding; strength is not graded here. For some of these results: Where a sequence is shown, tags or fusion partners need not be part of it. One block for each molecule: values may come before it.

By UniProt entry, the sequences of proteins in these tests, tags left out.
UniProt P37238: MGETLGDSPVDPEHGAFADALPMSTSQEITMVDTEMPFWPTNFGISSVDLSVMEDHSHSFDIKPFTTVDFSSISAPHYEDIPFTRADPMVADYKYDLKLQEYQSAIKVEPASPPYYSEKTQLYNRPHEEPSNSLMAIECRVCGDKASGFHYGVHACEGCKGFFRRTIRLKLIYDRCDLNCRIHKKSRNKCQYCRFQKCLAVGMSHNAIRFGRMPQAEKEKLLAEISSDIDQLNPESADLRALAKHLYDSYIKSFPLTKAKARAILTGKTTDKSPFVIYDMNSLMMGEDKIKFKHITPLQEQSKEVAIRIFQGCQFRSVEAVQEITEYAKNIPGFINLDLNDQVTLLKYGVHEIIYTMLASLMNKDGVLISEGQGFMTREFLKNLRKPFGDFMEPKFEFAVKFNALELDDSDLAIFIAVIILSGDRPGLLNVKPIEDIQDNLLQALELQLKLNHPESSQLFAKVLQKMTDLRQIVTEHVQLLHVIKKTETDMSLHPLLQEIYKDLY
UniProt Q9WUD1: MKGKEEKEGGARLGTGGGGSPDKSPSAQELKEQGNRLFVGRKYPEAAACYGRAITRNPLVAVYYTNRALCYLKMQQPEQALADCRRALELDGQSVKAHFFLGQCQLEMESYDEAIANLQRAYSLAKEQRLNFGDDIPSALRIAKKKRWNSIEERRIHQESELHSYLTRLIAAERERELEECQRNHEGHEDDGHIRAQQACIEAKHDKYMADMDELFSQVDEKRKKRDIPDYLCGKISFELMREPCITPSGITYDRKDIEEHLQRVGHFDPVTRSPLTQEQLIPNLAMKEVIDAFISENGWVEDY

Columns and labels:
[1] = molecular target: endogenous PPARγ of differentiated 3T3-L1 cells (mouse (endogenous in 3T3-L1)) (UniProt P37238); assay: co-IP; endogenous proteins of 3T3-L1 cells treated with DMI cocktail during 6 days and with MG132 for 6 h before harvest; immunoprecipitated with polyclonal PPARγ antibody
[2] = molecular target: HA-CHIP K30A, from pcDNA3-HA-CHIP K30A (UniProt Q9UNE7); assay: co-IP; lysates of HEK 293T cells transfected with HA-CHIP variants and FLAG-PPARγ, immunoprecipitated with α-HA antibodies
[3] = molecular target: HA-CHIP H260Q, from pcDNA3-HA-CHIP H260Q (UniProt Q9UNE7); assay: as above
[4] = molecular target: T1, MYC-CHIP, from pcDNA3-MYC-CHIP, Q9UNE7; assay: co-IP; lysates of HEK 293T cells transfected with deletion mutants of PPARγ2 or CHIP, immunoprecipitated with α-Myc and α-FLAG antibodies; details: remark: other sources report otherwise
T1 chain: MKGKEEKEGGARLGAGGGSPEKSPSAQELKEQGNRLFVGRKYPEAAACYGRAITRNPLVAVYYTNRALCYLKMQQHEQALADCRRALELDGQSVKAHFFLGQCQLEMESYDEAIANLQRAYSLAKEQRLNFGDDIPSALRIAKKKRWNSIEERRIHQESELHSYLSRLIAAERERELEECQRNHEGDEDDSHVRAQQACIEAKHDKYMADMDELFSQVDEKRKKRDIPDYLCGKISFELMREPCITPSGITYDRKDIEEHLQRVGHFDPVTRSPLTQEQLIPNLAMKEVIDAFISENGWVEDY

[5] = molecular target: T2, HA-CHIP, from pcDNA3-HA-CHIP, Q9UNE7; assay: co-IP; lysates of HEK 293T cells transfected with HA-CHIP variants and FLAG-PPARγ, immunoprecipitated with α-HA antibodies; details: remark: other sources report otherwise
T2 chain: T1 chain

[6] = molecular target: T3, FLAG-CHIP (C-terminus of HSC70-interacting protein), from pcDNA3-FLAG-CHIP, Q9UNE7; assay: co-IP; lysates of HEK293T cells transfected with FLAG-CHIP and HA-PPARγ, immunoprecipitated with α-HA and FLAG antibodies; in panel b cells treated with 10 μM MG132 for 6 hour before harvest; details: remark: other sources report otherwise
T3 chain: T1 chain

[7] = molecular target: T4, recombinant GST-CHIP, from pGEX-4T1-CHIP, Q9UNE7; assay: pull-down; GST pull-down: in vitro translated PPARγ2 incubated with GST or GST fusion protein for two hours, then with sepharose beads for one hour; washed, eluted with 10 mM reduced glutathione; western blot with GST and PPARγ antibodies; only the target purified; details: remark: other sources report otherwise
T4 chain: T1 chain

[8] = molecular target: T5, PPARγ2 from pcDNA3.1-PPARγ2, expressed in HEK 293T cells, P37231; assay: co-IP; HEK 293T cells transfected with pcDNA3-FLAG-CHIP, pcDNA3.1-PPARγ2 and pcDNA3-HA-HSP70, MG132 for 6 hour; lysates immunoprecipitated with α-PPARγ antibodies; details: remark: other sources report otherwise
T5 chain: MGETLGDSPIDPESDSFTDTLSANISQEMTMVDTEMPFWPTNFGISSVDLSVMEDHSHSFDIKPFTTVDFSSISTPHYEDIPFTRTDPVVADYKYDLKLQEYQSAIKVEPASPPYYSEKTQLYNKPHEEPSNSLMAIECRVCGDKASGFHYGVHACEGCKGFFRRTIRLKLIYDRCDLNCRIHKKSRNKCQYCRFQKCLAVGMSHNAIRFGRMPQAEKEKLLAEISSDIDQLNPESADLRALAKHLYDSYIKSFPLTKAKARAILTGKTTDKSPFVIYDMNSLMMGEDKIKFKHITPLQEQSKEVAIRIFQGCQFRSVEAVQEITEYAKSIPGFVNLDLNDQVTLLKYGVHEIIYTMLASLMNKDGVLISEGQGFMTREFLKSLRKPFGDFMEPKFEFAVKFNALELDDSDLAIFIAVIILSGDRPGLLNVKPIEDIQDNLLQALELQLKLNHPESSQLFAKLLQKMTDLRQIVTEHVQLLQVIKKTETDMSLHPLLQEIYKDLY

[9] = molecular target: T6, HA-PPARγ2 (peroxisome proliferator-activated receptor γ, isoform 2), P37231; assay: co-IP; lysates of HEK293T cells transfected with FLAG-CHIP and HA-PPARγ, immunoprecipitated with α-HA and FLAG antibodies; in panel b cells treated with 10 μM MG132 for 6 hour before harvest; details: remark: other sources report otherwise
T6 chain: T5 chain

[10] = molecular target: T7, endogenous PPARγ of PC-3 cells (human (endogenous in PC-3)), P37231; assay: co-IP; endogenous proteins of PC-3 cells; immunoprecipitated with α-IgG and α-PPARγ, western blot with polyclonal CHIP and monoclonal PPARγ antibodies; details: remark: other sources report otherwise
T7 chain: T5 chain

- binding [1]: binds
Molecule: endogenous CHIP of differentiated 3T3-L1 cells (from UniProt Q9WUD1 1-304) (enzyme)

- binding [2]: no binding
- binding [3]: binds
Molecule: FLAG-PPARγ2, from pCS4-3xFLAG-PPARγ2 (from UniProt P37231-1 1-505) (receptor)

- binding [4]: binds
- binding [5]: binds
B1: FLAG-PPARγ2, from pCS4-3xFLAG-PPARγ2, P37231-1 1-505 (receptor)
chain: T5 chain

- binding [6]: binds
B2: HA-PPARγ2 (peroxisome proliferator-activated receptor γ, isoform 2), P37231-1 1-505 (receptor)
chain: T5 chain

- binding [7]: binds
B3: PPARγ2 transcribed and translated in reticulocyte lysate, P37231-1 1-505 (receptor)
chain: T5 chain

- binding [8]: binds
- binding [9]: binds
B4: FLAG-CHIP (C-terminus of HSC70-interacting protein), from pcDNA3-FLAG-CHIP, Q9UNE7 1-303 (enzyme)
chain: T1 chain

- binding [10]: binds
B5: endogenous CHIP of PC-3 cells, Q9UNE7 1-303 (enzyme)
chain: T1 chain
